Measurements from PubChem BioAssay AID1460 (National Center for Advancing Translational Sciences (NCATS), 2008).
Screen size: about 270,000 compounds; about 5,800 (2.1%) were called active. The shares of active, inactive and inconclusive entries below differ from those in the screen. The call rests on the fitted dose curve; in most records, active means well fitted inhibition curve with a large enough effect; inconclusive means small, poorly fitted or top-dose-only effect; inactive means flat fitted curve, though single readings scatter. Potencies of inconclusive entries are doubtful fits and often do not repeat.

Biological target: Microtubule-associated protein tau (Homo sapiens) (UniProt P10636)
Assay: qHTS for Inhibitors of Tau Fibril Formation, Thioflavin T Binding; further: nearly all actives have a fitted effect of over 55% in size
Details: recombinant tau K18 P301L (four-repeat tau fragment), heparin-induced fibrillization, ThT fluorescence; series mostly up to 57.4 µM
Outline: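 K18 P301L tau (15 uM + 0.24 uM Alexa 594-tagged), heparin 20 uM, NaOAc pH 7, 6 h 37 C; ThT 30 uM, 1 h RT, ex 450/em 510 nm.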
Potency means the concentration at half of the fitted maximal effect; tags describe the fitted curve by direction and shape.

Chain of UniProt P10636 (P10636 whole entry, looked up): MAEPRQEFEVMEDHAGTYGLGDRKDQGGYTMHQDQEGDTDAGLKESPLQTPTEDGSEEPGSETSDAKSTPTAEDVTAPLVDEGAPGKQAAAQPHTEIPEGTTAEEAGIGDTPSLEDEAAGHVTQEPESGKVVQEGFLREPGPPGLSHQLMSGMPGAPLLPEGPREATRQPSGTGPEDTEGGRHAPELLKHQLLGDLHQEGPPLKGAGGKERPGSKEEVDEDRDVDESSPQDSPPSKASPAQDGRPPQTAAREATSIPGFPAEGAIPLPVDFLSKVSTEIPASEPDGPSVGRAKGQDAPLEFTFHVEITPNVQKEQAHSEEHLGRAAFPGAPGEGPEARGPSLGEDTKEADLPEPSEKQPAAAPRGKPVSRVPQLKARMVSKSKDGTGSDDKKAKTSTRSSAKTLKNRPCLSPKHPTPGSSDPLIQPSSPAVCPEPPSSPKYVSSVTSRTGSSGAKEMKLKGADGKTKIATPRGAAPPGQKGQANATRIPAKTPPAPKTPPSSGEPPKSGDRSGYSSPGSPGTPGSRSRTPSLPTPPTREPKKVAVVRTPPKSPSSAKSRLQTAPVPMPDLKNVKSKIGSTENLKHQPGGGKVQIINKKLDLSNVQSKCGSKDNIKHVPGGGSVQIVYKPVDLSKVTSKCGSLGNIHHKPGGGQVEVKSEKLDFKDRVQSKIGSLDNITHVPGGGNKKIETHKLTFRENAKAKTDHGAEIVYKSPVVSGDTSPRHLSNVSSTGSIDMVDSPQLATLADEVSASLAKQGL

SMILES	Potency
CCOC(=O)c1ccc(NC(=O)c2cnn(-c3ccc(C)cc3C)c2C2CCN(C(=O)OC(C)(C)C)CC2)cc1	inactive
Cc1nc2ccn(Cc3ccco3)c(=O)c2cc1C(=O)NCc1ccccc1F	inactive
CCc1ccc2nc(NC(=O)c3cc(C)on3)sc2c1	inconclusive: 8.91 µM [inhibitor, partial curve]
COc1cc(NC(=O)c2ccco2)c(OC)cc1NC(=O)CSc1nnc(-c2cccs2)n1C	inconclusive: 35.5 µM [inhibitor, single point]
CSCCC(NC(=O)c1ccc([N+](=O)[O-])cc1Cl)C(=O)OCC(=O)C12CC3CC(CC(C3)C1)C2 (stereo unspecified)	inconclusive: 39.8 µM [inhibitor, single point]
CN1C(=O)c2c(sc3c2CCCC3)NC1c1ccccc1O (stereo unspecified)	inconclusive: 28.2 µM [inhibitor, partial curve]
CCOc1cc(-c2cc(-c3ccc(N)cc3)nc(N)c2C#N)ccc1O	inconclusive: 15.8 µM [inhibitor, partial curve]
COc1ccc(-c2nc(C(N)=O)c3[nH]c(=O)n(-c4cccc(Cl)c4)c3n2)cc1OC	inconclusive: 20 µM [inhibitor, single point]
O=c1c(O)c(-c2ccc(O)c(O)c2)oc2cc(O)ccc12	active: 5.01 µM
Cc1cccc(Sc2c(C=O)c3ccccc3n2C)c1	inconclusive: 28.2 µM [inhibitor, single point]
CNc1oc(/C=C/c2ccccc2)nc1C#N	inconclusive: 5.01 µM [inhibitor, partial curve, poor fit]
CCOc1cc(C(=O)Nc2ccc3nc(Nc4cccc(Cl)c4)cc(C)c3c2)cc(OCC)c1OCC	inconclusive: 3.98 µM [inhibitor, partial curve]
CS(=O)(=O)N1CCN(c2ccc([N+](=O)[O-])c(NCc3ccccc3)c2)CC1	inconclusive: 10 µM [inhibitor, partial curve]
Clc1ccc(Cn2nc(-c3ccccc3)nc2-c2ccccc2)cc1	inactive
Cc1ccc(NC(=O)c2noc3c2CCC3)cc1C	inconclusive: 39.8 µM [inhibitor, partial curve]
CCc1c(C)sc(NC(=O)c2cc(-c3cccc(Cl)c3)on2)c1C#N	inconclusive: 0.355 µM [inhibitor, full curve, poor fit]
Cc1ccc(OCCN2C(=O)OC(C)(C)C2(C)O)cc1 (stereo unspecified)	inconclusive: 39.8 µM [inhibitor, single point]
CC(C)C(=O)c1cn(CC(=O)NCc2ccc3c(c2)OCO3)c2ccccc12	inactive
Cc1nc(SCC(=O)N2CCc3ccccc3C2)c2c(C)c(C)sc2n1	inconclusive: 12.6 µM [inhibitor, partial curve, poor fit]
CCCCN(CC)CCCNC(=O)c1nn(C)c2c1CS(=O)(=O)c1ccccc1-2	inactive
O=C(c1cc2c(s1)-c1ccccc1OC2)N1CCN(c2ccccc2F)CC1	inconclusive: 11.2 µM [inhibitor, partial curve]
C=C1C(=O)[C@]23[C@H](O)[C@H]1CC[C@H]2[C@@]12COC3(O)[C@H](O)[C@@H]1C(C)(C)CC[C@@H]2O	inactive

SMILES	Potency
C=CCNc1nnc(SC2CC(=O)N(c3ccc(OCCC)cc3)C2=O)s1 (stereo unspecified)	inconclusive: 20 µM [inhibitor, partial curve, poor fit]
Cc1cccc(-c2noc(-c3ccc(Cl)cc3[N+](=O)[O-])n2)c1	inconclusive: 14.1 µM [inhibitor, partial curve]
Cc1cccc(OCCCC(=O)N2CCCc3ccccc32)c1C	inconclusive: 17.8 µM [inhibitor, partial curve]
CC(C)N(C(=O)CSc1nnc(NC(=O)c2ccco2)s1)C(C)C	inactive
COc1ccc(C)cc1NC(=O)CC1COc2ccccc2O1 (stereo unspecified)	inactive
Oc1ccc(/C=N/Nc2ccc(C(F)(F)F)cn2)cc1	inconclusive: 7.94 µM [inhibitor, partial curve, poor fit]
O=C(CCNS(=O)(=O)c1cccc2nonc12)NC1CCCc2ccccc21 (stereo unspecified)	inactive
Oc1ccccc1N=Cc1sc2ccccc2c1Cl	inconclusive: 15.8 µM [inhibitor, partial curve]
COc1ccc2[nH]cc(CCNc3cc(-c4ccoc4)ncn3)c2c1	inconclusive: 15.8 µM [inhibitor, partial curve]
COc1ccc(-c2cn3c(C)c(C(=O)Nc4cccc(C)n4)sc3n2)cc1	inconclusive: 2 µM [inhibitor, full curve]
COc1cc(/C=N/Nc2cccc(C)c2)ccc1OC(=O)c1ccco1	inconclusive: 14.1 µM [inhibitor, partial curve]
Cc1ccc2oc(=O)c3cnn(CC(=O)N4CCN(c5ccccn5)CC4)c3c2c1	inconclusive: 3.55 µM [inhibitor, full curve]
O=C(Nc1ccc(N2CCN(C(=O)c3ccccc3)CC2)cc1)c1ccc([N+](=O)[O-])o1	active: 4.47 µM
Cc1cc(/C=C2/NC(=O)NC2=O)c(C)n1C	inconclusive: 17.8 µM [inhibitor, partial curve]
Cc1ccc(S(=O)(=O)CC(=O)Nc2sc3c(c2C#N)CCCC3)cc1	inactive
Cc1ccc(CSCC(=O)N2CCN(c3ccccc3F)CC2)cc1	inconclusive: 14.1 µM [inhibitor, partial curve, poor fit]
CCN1C(=O)/C(=C2\SC(N3CCCCC3)=NC2=O)c2ccccc21	active: 11.2 µM
CCOC(=O)c1ccc(N2C(=O)c3n[nH]c(-c4ccco4)c3C2c2ccc(O)cc2)cc1 (stereo unspecified)	inactive
CC(=O)N(c1nc(CCl)cs1)c1c(C)cc(C)cc1C	inactive
COc1ccc(-c2cc(C(=O)NNC(=S)NC(=O)c3c(-c4ccccc4)noc3C)[nH]n2)cc1	inconclusive: 12.6 µM [inhibitor, partial curve]
CCCCCOc1c(Cl)cc(C(=O)N(Cc2ccc(C)o2)C2CCS(=O)(=O)C2)cc1Cl (stereo unspecified)	inconclusive: 14.1 µM [inhibitor, single point]
CCCN(CCC)CCCNC(=O)C1CCN(S(=O)(=O)CC)CC1	inactive

SMILES	Potency
COc1ccccc1CN(C)CC(=O)Nc1ccccc1-c1ccccc1	inconclusive: 11.2 µM [inhibitor, partial curve]
COC(=O)CNC(=O)c1ccc(NS(=O)(=O)c2cc([N+](=O)[O-])ccc2Cl)cc1	inconclusive: 8.91 µM [inhibitor, partial curve]
COc1ccc(CCNC(=O)CCCn2c(=O)c3ccccc3n(CC(=O)Nc3cc(Cl)ccc3C)c2=O)cc1OC	inactive
N#Cc1c(-c2ccc3c(c2)OCO3)csc1N	inconclusive: 31.6 µM [inhibitor, partial curve]
Cc1ccc(CN2CCSc3ccc(C(=O)NCc4cccnc4)cc32)cc1	inconclusive: 15.8 µM [inhibitor, partial curve, poor fit]
COc1ccc(C(=O)Nc2cc(C)nn2-c2nc3ccccc3[nH]2)c(OC)c1	inactive
Cc1cc(C)c2nc(NNC(=O)c3cc(=O)c4ccccc4o3)sc2c1	active: 5.01 µM
COc1ccc2nc(NC(=O)CCc3cc(OC)c(OC)c(OC)c3)sc2c1	inconclusive: 14.1 µM [inhibitor, partial curve, poor fit]
O=C1NC(=S)N/C1=C/c1ccc(-c2c(Br)cc([N+](=O)[O-])cc2Br)o1	inconclusive: 7.08 µM [inhibitor, partial curve]
COc1ccc2c(C(=O)CN3CCSCC3)c[nH]c2c1	inconclusive: 14.1 µM [inhibitor, single point]
CCOC(=O)c1c(NC(=O)COc2cc(C)ccc2C(C)C)sc(C)c1C	active: 25.1 µM
CCCCCC(=O)Nc1ccc(-c2csc(N)n2)cc1	inconclusive: 11.2 µM [inhibitor, partial curve]
CC(=O)Nc1ccc2c(c1)C(=O)c1ccccc1C2=O	inconclusive: 17.8 µM [inhibitor, partial curve]
O=c1c2ccccc2ncn1CCCSc1ccc(Cl)cc1	inconclusive: 22.4 µM [inhibitor, single point]
CC1=NN(C(N)=S)C(=O)C1N=Nc1cccc(C)c1 (stereo unspecified)	inconclusive: 0.794 µM [inhibitor, full curve]
COc1ccc(-c2nc(CSc3nncn4c3cc3occc34)c(C)o2)cc1	inconclusive: 0.355 µM [inhibitor, full curve]
N#CC1=C(N)OC2=C(C(=O)CC(c3ccccc3)C2)C1c1ccoc1 (stereo unspecified)	inconclusive: 31.6 µM [inhibitor, single point]
O=C(CSc1nnc(-c2cccnc2)n1Cc1ccco1)c1ccc2ccccc2c1	inconclusive: 31.6 µM [inhibitor, single point]
COc1ccc2[nH]cc(CCNc3ccnc(-c4cccc(NS(C)(=O)=O)c4)n3)c2c1	inconclusive: 12.6 µM [inhibitor, partial curve]
COc1ccc(OC)c(C2C3=C(N=C4SCC(=O)N42)c2ccccc2CC3)c1 (stereo unspecified)	inconclusive: 28.2 µM [inhibitor, partial curve]
COc1cc(C(=O)NS(=O)(=O)c2ccccc2C)ccc1Cc1cn(C)c2ccc(NC(=O)OC3CCCC3)cc12	inconclusive: 25.1 µM [inhibitor, partial curve]
CCOCCCNC(=O)C(Cc1ccccc1)NS(=O)(=O)c1ccc2c(c1)c(=O)n(C)c(=O)n2C (stereo unspecified)	inconclusive: 0.794 µM [inhibitor, single point]
